Data published in PubChem BioAssay AID488969 (Vanderbilt High Throughput Screening Facility, 2010).
Whole data set: some 110,000 compounds, median “z-score” near -0.1, cut for the highest 2% near 2. This is one part of the list. Activity calls are given as the source filed them.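 How the source made its calls: active means z-score in the third read window above 3 or below -3; inactive means the rest.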

Molecular target: Metabotropic glutamate receptor 8 (Rattus norvegicus) (UniProt P70579)
Assay: mGluR8 Gi/Go-coupled signaling modulation – cell-based, rat, thallium flux, HTS, primary screen (AID 488969)
Conditions: HEK293 rat mGluR8, GIRK (G protein-gated inwardly rectifying potassium channel) thallium flux, FluoZin2; at 10 µM; stronger effect = higher value; submaximal glutamate (EC20) added with thallium

Chain of UniProt P70579 (P70579 whole entry, looked up): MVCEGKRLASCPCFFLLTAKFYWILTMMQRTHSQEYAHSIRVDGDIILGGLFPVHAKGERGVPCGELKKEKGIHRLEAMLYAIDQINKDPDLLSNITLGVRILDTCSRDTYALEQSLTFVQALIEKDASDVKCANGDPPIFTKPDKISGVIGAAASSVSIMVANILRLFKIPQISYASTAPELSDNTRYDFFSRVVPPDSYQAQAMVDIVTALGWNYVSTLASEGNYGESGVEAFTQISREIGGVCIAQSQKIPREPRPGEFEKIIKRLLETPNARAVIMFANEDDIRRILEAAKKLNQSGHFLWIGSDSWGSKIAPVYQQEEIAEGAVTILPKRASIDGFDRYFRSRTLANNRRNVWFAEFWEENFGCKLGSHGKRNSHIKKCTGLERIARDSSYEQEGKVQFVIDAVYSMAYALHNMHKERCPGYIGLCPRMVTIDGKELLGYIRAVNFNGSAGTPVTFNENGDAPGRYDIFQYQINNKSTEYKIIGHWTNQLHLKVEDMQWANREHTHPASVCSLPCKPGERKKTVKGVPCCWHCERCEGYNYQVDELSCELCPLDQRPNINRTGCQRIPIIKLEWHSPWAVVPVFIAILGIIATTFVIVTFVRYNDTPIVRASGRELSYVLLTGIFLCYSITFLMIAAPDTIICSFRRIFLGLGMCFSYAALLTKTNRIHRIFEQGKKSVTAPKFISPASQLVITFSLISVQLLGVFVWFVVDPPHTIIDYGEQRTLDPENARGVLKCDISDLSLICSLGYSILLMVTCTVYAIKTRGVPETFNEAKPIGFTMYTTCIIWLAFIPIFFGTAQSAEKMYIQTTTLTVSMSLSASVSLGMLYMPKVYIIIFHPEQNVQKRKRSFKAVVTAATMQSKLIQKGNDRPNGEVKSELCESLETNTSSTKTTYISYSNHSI

Row | SMILES | z-score
1 | Cc1nc2cc(CC(=O)O)ccc2o1 | -0.422
2 | O=C(COC(=O)/C=C/c1ccccc1)NCc1ccc(Cl)cc1 | -0.244
3 | O=C(Oc1cccnc1)c1cc2ccccc2oc1=O | -0.355
4 | CCCc1nc(Cl)c(C#N)c2c1CCCC2 | 0.271
5 | COC(=O)C(Cc1ccc(O)cc1)NC(=O)CCC(=O)Nc1ccc(S(N)(=O)=O)cc1 (centres undefined) | -0.14
6 | Cc1nn(-c2cccc(C(F)(F)F)c2)c(Cl)c1/C=N/n1cnnc1 | -0.527
7 | CCOc1ccc(C2NC(=O)NC(C)=C2C(=O)OC)cc1C (centres undefined) | -0.376
8 | O=c1[nH]c2ccccc2c(=O)n1Cc1ccccc1 | 0.345
9 | CCCCn1c(SCC(=O)N2c3ccccc3CCc3ccccc32)nc2c1c(=O)n(C)c(=O)n2C | -0.542
10 | Cc1cccc2cc(/C=N/NC(=O)CN3CCOCC3)c(Cl)nc12 | -0.19
11 | O=C(Cc1csc(Nc2nc(=S)[nH]c3ccccc23)n1)NCc1ccc(Cl)cc1 | active: 7.05
12 | Cc1ccnc(SCc2cc(=O)c(OC(=O)c3ccc(Cl)c([N+](=O)[O-])c3)co2)n1 | -0.912
13 | COc1ccccc1C(=O)Oc1cc(N)n(S(=O)(=O)c2ccc(C)cc2)n1 | -0.56
14 | COc1ccc(OC)c(-c2cc(C3CCN(c4ncccc4[N+](=O)[O-])CC3)[nH]n2)c1 | -0.48
15 | COc1ccc(OCC(O)CN2CCCCCC2)cc1 (centres undefined) | 0.373
16 | CCC1Oc2ccccc2N(CC(=O)NCCCN2CCCCC2C)C1=O (centres undefined) | -0.198
17 | Cc1nc2c(-c3ccccc3)c(C)nn2c(C)c1CCC(=O)NC(C)CCc1ccco1 (centres undefined) | -0.522
18 | COC(=O)CCC(=O)N1CCc2cc(S(=O)(=O)N3CCN(c4ccccc4Cl)CC3)ccc21 | 0.729
19 | Cc1ccc(S(=O)(=O)N2Cc3ccccc3CC2C(=O)Nc2cc(C)on2)cc1 (centres undefined) | -1.27
20 | COc1cc(OC)cc(-c2cc(N)n(S(=O)(=O)Cc3ccccc3)n2)c1 | -0.0712
21 | COc1ccc(-c2cc(CCCC(=O)NCCc3ccc(OC)cc3OC)no2)cc1 | 0.0917
22 | Clc1nccnc1-c1ccccc1 | 0.222

Row | SMILES | z-score
23 | COc1ccc(OC)c(NC(=O)CNC(=O)c2cccs2)c1 | -0.286
24 | Cc1ccc2c(c1)nnn2C1CCN(S(=O)(=O)c2ccc(C(=O)N(C)C)cc2)CC1 | 0.178
25 | Cc1nc(-c2ccccc2)sc1C(=O)CSc1ccc(Br)cc1 | -0.108
26 | CCCCCOC(=O)NCCOC(=O)Nc1ccc(C(=O)OCC)cc1 | -0.155
27 | CC(=O)c1cccc(NC(=S)NC(=O)c2ccccc2)c1 | 1.63
28 | CCC(C)NC(=O)COC(=O)c1oc2ccccc2c1CSc1ccc(Cl)cc1 (centres undefined) | -0.66
29 | CCOc1ccc(N2C(=O)c3cccnc3C2Nc2ccc(OC)cc2)cc1 (centres undefined) | -0.304
30 | COc1ccccc1CNn1c(-c2cccc(C)c2)nc2ccccc2c1=O | -1.23
31 | Cc1ccc(-c2ccc(CCC(=O)O)n2-c2ccc(O)cc2)cc1 | -0.338
32 | CCOc1ccc(-c2nc(S(=O)(=O)c3ccccc3)c(NCc3cccnc3)o2)cc1 | 0.382
33 | Cc1nc(N2CCN(C(c3ccccc3)c3ccccc3)CC2)[nH]c(=O)c1C | -0.222
34 | COc1ccc(NC(=O)C23CC4CC(C2)CC(c2ccccc2)(C4)C3)c(OC)c1 | -0.321
35 | COC(=O)c1ccc(-c2nc(O)c3cnccn23)cc1 | -0.794
36 | COc1cc(CNC2CCCCC2OC)cc(OC)c1OC (centres undefined) | -0.0819
37 | Cc1c(Cl)cccc1Nc1nc(N)nc(CSCCO)n1 | 0.0164
38 | COc1cc(CNCCc2ccc(S(N)(=O)=O)cc2)ccc1OCC(=O)N1CCCCC1 | -0.014
39 | COC(=O)/C(C(C)=O)=C(/C=C/C=C/N(C)C)N(C)C | 0.241
40 | O=C(Oc1ccc2ccccc2c1Cl)N1CCCC1 | -0.206
41 | CCOC(=O)C(NC(=O)NCc1ccc(OC)cc1)(OCC)C(F)(F)F (centres undefined) | -0.306
42 | COc1ccc(OCC(=O)N2N=C(C(F)F)CC2(O)C(F)F)cc1 (centres undefined) | 1.18
43 | CCn1c(Cc2cccc3ccccc23)nnc1SCC(=O)Nc1nccs1 | -1
44 | O=C(CN(Cc1ccco1)C(=O)CNS(=O)(=O)c1ccccc1)NCc1ccc(F)cc1 | 0.109

Row | SMILES | z-score
45 | COc1ccc(CNC(=O)CS(=O)Cc2nc(-c3ccc(C)cc3)oc2C)cc1 (centres undefined) | -0.37
46 | Cc1ccnc(SCC(=O)n2c3c(c4ccccc42)CC(C)CC3)n1 (centres undefined) | -0.187
47 | C=CCc1cccc2cc(C(=O)N3CCN(C(=O)OCC)CC3)c(=O)oc12 | 0.153
48 | CCOCCCNC(=O)N[C@@H](C)C(=O)OC | -0.392
49 | CCc1nc(NCCN2CCOCC2)c(C#N)c2c1CCCC2 | -0.323
50 | CC1(C)NC(=O)N(CC(O)CN2CCCCC2)C1=O (centres undefined) | 0.323
51 | CCC(C)NC(=O)CSc1nnc(-c2cc(-c3cccs3)nc3ccccc23)o1 (centres undefined) | -0.652
52 | CC(C)OC(=O)CC(=O)CSc1nc2c(cc1C#N)CCCCC2 | -0.045
53 | COc1ccc2[nH]c(=O)c(CN(Cc3cccs3)C(=S)Nc3ccccc3)cc2c1 | -0.195
54 | CCn1nnnc1SCC(=O)Nc1nc(-c2cccs2)cs1 | -0.439
55 | CSc1nc2ccc3nc(NC(=O)c4ccccc4)sc3c2s1 | -0.431
56 | Cc1ccc(C(=O)N/C(=C\c2ccc(-c3cc(Cl)ccc3Cl)o2)C(=O)NCc2cccnc2)cc1 | -0.283
57 | O=C(/C=C/c1ccccc1Cl)N1CCN(c2ncccn2)CC1 | 0.458
58 | CCOc1ccc(-c2nc(-c3cccnc3)no2)cc1OCC | 0.841
59 | COc1ccc(-c2nnn(CC(=O)N(Cc3cccs3)C(C)C(=O)NCCC(C)C)n2)cc1OC (centres undefined) | -0.592
60 | CC(c1ccco1)N(C(=O)COc1ccc(Cl)cc1Cl)c1ccccn1 (centres undefined) | -0.193
61 | O=C(/C=C/c1ccco1)NC(=S)Nc1ccc(N2CCCC2)cc1 | -0.0149
62 | COc1ccc(CCN2CC(C#N)=C3c4cc(OC)c(OC)cc4CCN3C2)cc1OC | -0.854
63 | Cc1ccccc1CN1CCN(CC(=O)NCc2ccccc2)C1=O | 0.0216
64 | CCOC(=O)c1c(C)sc2c1N(C(C)=O)c1cc(Cl)ccc1S2 | -0.684
65 | COc1ccc(CCC(=O)NCc2cnn(C)c2)cc1 | active: 3.37
66 | COc1ccc(-c2noc(CCC(=O)N3CCN(Cc4ccccc4)CC3)n2)cc1 | -0.368

Row | SMILES | z-score
67 | CC1CCN(C(=O)CNS(=O)(=O)c2ccc(Br)s2)CC1 | 0.784
68 | O=S(=O)(c1ccc(F)cc1)N(CCO)CC(O)Cn1c2ccccc2c2ccccc21 (centres undefined) | -0.131
69 | CCc1nnc(NC(=O)CSc2ccc(-c3nc4ccccc4[nH]3)cn2)s1 | -0.181
70 | Cc1ccc(CNC(=O)c2ccc(C#CC(C)(C)O)s2)cc1 | -0.323
71 | CS(=O)(=O)N(Cc1ccccc1)c1ccc(C(=O)N2CCOCC2)cc1 | 0.0222
72 | COc1ccc(C(=O)Nc2ccc(Cl)cc2C(=O)N2CCCC(C)C2)cc1 (centres undefined) | -0.264
73 | C(#Cc1ccccc1)Cn1nnc2ccccc21 | -0.98
74 | CCCSc1oc(-c2ccco2)nc1S(=O)(=O)c1ccccc1 | -0.357
75 | CCOC(=O)C1CCN(Cc2coc3ccc(Cl)cc3c2=O)CC1 | -0.298
76 | Cc1ccccc1-n1c(C)cc(/C=C2/C(=N)N3C(c4ccccc4)=CSC3=NC2=O)c1C | 0.264
77 | O=C(O)Cn1cccc1C(=O)c1ccccc1 | 0.209
78 | CC1CCC/C(=C\Nc2ccc3c(c2)OCO3)C1=O (centres undefined) | -0.0151
79 | O=C(CCC(=O)OCC(=O)c1ccc(Br)cc1)Nc1ccc(Br)c2cccnc12 | 0.139
80 | C=CCN(C1CCCCC1)S(=O)(=O)c1ccc2c(c1)oc(=O)n2C | -0.178
81 | CCCCn1c(CCCNC(=O)CC)nc2ccccc21 | -0.571
82 | COc1cccc(NC(=O)c2nc3nc(C)cc(C(F)F)n3n2)c1 | -0.116
83 | CCOC(=O)N1CCC(N2Cc3cccc(C(=O)NCC4CCN(CC(C)C)C4)c3C2=O)CC1 (centres undefined) | -0.12
84 | O=c1c2ccccc2n2c(-c3ccc(F)cc3)nnc2n1Cc1ccccc1 | -0.162
85 | CC(C)(C)c1n[nH]c(=S)n(/N=C/c2cccs2)c1=O | 0.25
86 | c1ccc(-n2cnnc2SCc2cn3cccnc3n2)cc1 | -0.0444
87 | COc1ccc(C)cc1N(C(=O)c1ccc(F)cc1)c1nc2ccccc2s1 | 0.313
88 | Cc1cc2c(c(SCC(=O)N(C)c3ccccc3)n1)C(=O)OC2 | -0.234

Row | SMILES | z-score
89 | Cc1ccc(S(=O)(=O)N2CCN(c3ccc(S(=O)(=O)N4CCOCC4)cn3)CC2)cc1 | 0.062
90 | CCC(CO)NC(=O)c1cc2c(s1)CCC2 (centres undefined) | -0.373
91 | COc1ccc(N(Cc2cc3cc(OC)ccc3[nH]c2=O)C(=O)C2CCCO2)cc1 (centres undefined) | 0.133
92 | Cc1ccc(S(=O)(=O)N2CCN(C3CC(=O)N(CCc4ccccc4)C3=O)CC2)cc1C (centres undefined) | -0.331
93 | CCN(CC)c1ccc(C(=O)OCC(=O)NCC2CCCO2)cc1 (centres undefined) | 0.39
94 | O=C(NCc1ccc(Cl)cc1)c1ccc(Cn2cc(C(F)(F)F)ccc2=O)cc1 | -0.381
95 | Cc1ccc2c(CC(=O)OCn3nnc4ccccc4c3=O)coc2c1 | -0.599
96 | O=C(NCC1CCCO1)C1c2ccccc2C(=O)N1C1CCCCCC1 (centres undefined) | -0.616
97 | Cc1ccc(C(=O)O)cc1NC(=O)C1CCCN1S(=O)(=O)c1cccc2nsnc12 (centres undefined) | -0.022
98 | COc1ccccc1NC(=O)Cn1c(=O)oc2ccccc21 | -0.038
99 | CCOC(=O)C(=O)Nc1nnc(C2CCCCC2)s1 | -0.228
100 | CCOC(=O)N1CCN(C(=O)C2CCN(c3ncnc4c3sc3cccc(F)c34)CC2)CC1 | -2.12
101 | COc1ccc(-c2nnc(SCC(=O)Oc3ccc(C)cc3)o2)cc1 | -0.915
102 | O=C(Nc1cccc(S(=O)(=O)N2CCCCC2)c1)c1ccc2c(c1)OCO2 | -0.45
103 | Cc1csc2nc3ccccc3c(=O)n12 | -0.0425
104 | FC(F)(F)c1cc(C(F)(F)F)c2ccc(N/N=C/c3cccc(Cl)c3)nc2n1 | -0.114
105 | COc1ccc(-c2ccc(Nc3ccc(C(=O)N4CCOCC4)cc3)nn2)cc1OC | -0.327
106 | Cc1[nH]c(=O)[nH]c(=O)c1S(=O)(=O)N1CCC(C(=O)N2CCN(Cc3ccccc3)CC2)CC1 | 0.432
107 | COc1ccc(OC)c(S(=O)(=O)Nc2cccnc2)c1 | 0.0762
108 | CCN1CCN(C(=O)CCN2C(=O)COc3ccc(C)cc32)CC1 | 0.156
109 | CC1(C)Cc2ccccc2C(c2cc3ccccc3oc2=O)=N1 | -0.0977
